Reference: patent US6841566B2, “Viral polymerase inhibitors” (Boehringer Ingelheim, Ltd., priority 2001, dated 2005)

Biological target: hepatitis C virus RNA dependant polymerase (NS5B) (Hepatitis C virus genotype 1b, UniProt P26663)
Assay: Inhibition of NS5B RNA dependent RNA polymerase activity (SPA, oligo-U/polyA)

Row | Compound | IC50
1 | Cn1cccc1-c1nc2cc(C(=O)NC3(C(=O)Nc4ccc(/C=C/C(=O)O)cc4)CCCC3)ccc2n1C1CCCCC1 [compound 2048] | < 0.5 µM
2 | O=C(O)/C=C/c1ccc(NC(=O)C2(NC(=O)c3ccc4c(c3)nc(-c3ccco3)n4C3CCCCC3)CCCC2)cc1 [compound 2049] | < 0.5 µM
3 | O=C(O)/C=C/c1ccc(NC(=O)C2(NC(=O)c3ccc4c(c3)nc(-c3cccs3)n4C3CCCCC3)CCCC2)cc1 [compound 2050] | < 0.5 µM
4 | O=C(O)/C=C/c1ccc(NC(=O)C2(NC(=O)c3ccc4c(c3)nc(-c3cccc5c3OCO5)n4C3CCCCC3)CCCC2)cc1 [compound 2051] | 0.5 to 5 µM
5 | O=C(O)/C=C/c1ccc(NC(=O)C2(NC(=O)c3ccc4c(c3)nc(-c3ccc(OCC(=O)NCCNC(=O)c5ccc(C(=O)c6ccccc6)cc5)cc3)n4C3CCCCC3)CCNCC2)cc1 [compound 2052] | 5 to 25 µM
6 | O=C(O)/C=C/c1ccc(NC(=O)C2(NC(=O)c3ccc4c(c3)nc(-c3ccc(OCC(=O)NCCNC(=O)c5ccc(C(=O)c6ccccc6)cc5)cc3)n4C3CCCCC3)CCN(C(=O)CCCCC3SC[C@H]4NC(=O)N[C@@H]34)CC2)cc1 (stereo partly drawn) [compound 2053] | 5 to 25 µM
